# PubChem BioAssay (NCI)
# Several values for one entry are separate records, joined by “and”; a condition that tells them apart may be missing. Equal entries are not always repeated.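 Five compound concentrations were applied to cells in 96-well plates for 48 hours; endpoints were derived by simple linear interpolation of the resulting dose-response curve. The concentration for 50% growth inhibition is given as GI50. TGI denotes the concentration required for complete inhibition of growth.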
# System: NCI-H322M lung
# Assay: NCI tumour cell line growth inhibition, 48 h
SMILES,TGI,GI50
CN(Nc1cc(=O)[nH]c(=O)[nH]1)c1ccccc1,> 100 µM,–
COc1ccc(CCNC2=CC(=O)c3ncccc3C2=O)cc1OC,2.95 µM,–
CC(C)(C)N1CC2(CCCCC2)C1=O,> 100 µM,–
COc1ccc2c(c1C)C(=O)C(O)(CC=C(C)C)O2 (centres undefined),> 100 µM,–
Fc1ccc(Nc2cc(-n3nnc4ccccc43)nc3ccccc23)cc1,> 70.6 µM,20.2 µM
NC(=O)C(=CNc1nc(-c2ccc(Cl)c(Cl)c2)cs1)C(N)=O,> 100 µM,29.6 µM
O=c1c(-c2ccccc2)c(SCCCN2CCN(c3cccc(Cl)c3)CC2)n(-c2ccccc2)c(=S)n1-c1ccccc1,> 100 µM,–
CCOC(=O)C1(C(=O)OCC)CN(CC)CN(c2ccccc2)C1,> 100 µM,–
O=C(Nc1ccc(Cl)cc1F)c1cc(Br)ccc1O,> 31 µM,0.696 µM
CC(=O)Oc1ccccc1-c1cc2ccccc2oc1=O,> 100 µM,–
Cc1cc(C)n(CCNCCn2nc(C)cc2C)n1,> 100 µM,–
O=C(O)c1cccc(OCCO)c1,> 100 µM,–
CCOC(=O)N1CCN(C(=O)c2ccc(C(F)(F)F)nc2Nc2cc(Cl)ccc2C)CC1,> 100 µM,28.1 µM
Nc1ccc(C(=O)NN2C(=O)C(Cl)C2c2ccccc2Cl)cc1 (centres undefined),28.5 µM,–
O=C(N/N=C\c1cc(Br)ccc1O)c1ccncc1,> 100 µM,5.46 µM
Cc1ccc(C2CC(c3ccco3)=NN2c2ccccc2)o1 (centres undefined),> 100 µM,–
CCOC(=O)CC1CCN(C(=O)c2ccccc2)C2Cc3c([nH]c4ccccc34)C12C[N+](=O)[O-] (centres undefined),> 100 µM,–
Cc1cccc2c1Oc1cc(Cl)ccc1C2NC(=O)CCN1CCOCC1 (centres undefined),> 100 µM,–
Cc1c(C2Nc3ccccc3C2C)[nH]c2ccccc12 (centres undefined),36.9 µM,16.1 µM
CC(C)CC1[C@@H](OCc2ccccc2)COS(=O)N1Cc1ccccc1 (some centres undefined),> 100 µM,–
O=C1/C(=C\c2ccc([N+](=O)[O-])o2)SC2N=C(COc3ccc(Cl)cc3)NN12 (centres undefined),35.1 µM,–
COc1ccccc1NC(=O)C1=C(C)NC(C)=C(C(=O)Nc2ccccc2OC)C1c1ccc([N+](=O)[O-])cc1,> 100 µM,–
N#CC(/C(=N/NC(=O)C(=O)NN)C(=O)NC12CC3CC(CC(C3)C1)C2)c1ccccc1 (centres undefined),> 100 µM,–
CCN(CC)CCNCC(=O)Oc1ccc(/C=C/C(=O)CC(=O)/C=C/c2ccc(OC(=O)CNCCN(CC)CC)c(OC)c2)cc1OC,25.1 µM,10.8 µM
C=CCNC1=C2C[C@@H](C)C[C@@H](OC)[C@@H](OC(=O)CCCN)[C@H](C)/C=C(\C)[C@@H](OC(N)=O)[C@H](OC)/C=C\C=C(/C)C(=O)NC(=CC1=O)C2=O,26.4 µM,–

SMILES,TGI,GI50
CN(C)C1=Nc2ccccc2C(=S)N2CSCC12 (centres undefined),> 100 µM,–
O=C1c2cc3c(cc2CC12Cc1cc4c(cc1C2=O)CCC4)CCCC3 (centres undefined),> 100 µM,–
O=C(O)Cc1c(O)ccc2ccccc12,> 100 µM,–
COc1ccc(C[N+]23C(CC[C@H]2c2ccccc2)CC[C@H]3c2ccccc2)cc1 (some centres undefined),> 100 µM,–
N#CC(NNC(=O)Cc1ccccc1)c1ccccc1O (centres undefined),> 100 µM,–
CC1(C)OCC2OC3(c4nc(C#N)c(N)o4)OC(C)(C)OC3C2O1 (centres undefined),> 100 µM,–
Cc1c[n+](Cc2ccc3ccccc3c2)cn1Cc1ccc2ccccc2c1,10.3 µM,2.87 µM
c1ccc2c3ccn4cc5c(cc4c-3nc2c1)CCCC5,11.5 µM,2.75 µM
O=C(O)c1nc(-c2ccccn2)c(-c2ccccn2)nc1C(=O)O,11.6 µM,–
CN1CCc2c(Sc3ccc(C(=O)NO)cc3)c3ccccc3n2C1,8.89 µM,2.5 µM
O=C1NC(=O)C(CCO)(c2ccccc2)C(=O)N1,> 100 µM,–
CN(C)c1ccc2nc3ccc(=O)cc-3sc2c1,30.2 µM,10.5 µM
CCOC(=O)C(N=Nc1ccc(S(N)(=O)=O)cc1)C(C)=O (centres undefined),> 100 µM,–
Cc1cn(C2CC(ON3C(=O)c4ccccc4C3=O)C(CO)O2)c(=O)[nH]c1=O (centres undefined),> 10 µM,–
CCOC(=O)[C@H](CCCNC(=O)OC(C)(C)C)NCc1ccc(OC)c(OC)c1,> 100 µM,–
COc1cc(/C=C2\C[C@H]3[C@@H]4CC=C5C[C@@H](O)CC[C@]5(C)[C@H]4CC[C@]3(C)C2=O)cc(OC)c1OC,> 100 µM,–
CCOC(=O)C(N)CSC(=O)NC (centres undefined),620 µM,–
Cc1cn2c(/C=C3/C(=O)Nc4ccccc43)c(-c3ccc(Cl)cc3)nc2s1,14.9 µM,7.64 µM
Cc1cc(NC(=O)c2ccc(C)c(Nc3nccc(-c4cccnc4)n3)c2)cc(-n2cnc(C)c2)c1,13.8 µM,3.56 µM
COC(=O)C12C3C4C5(C(=O)OC)C(C1C35C(=O)N(C(C)C)C(C)C)C42C(=O)N(C(C)C)C(C)C (centres undefined),> 50 µM,–
O=C(Nc1cccc(Cl)c1)c1cc2ccccc2cc1O,> 100 µM,2.83 µM and 2.41 µM
Cc1ccc(N(CSc2ccc(Cl)cc2)CSc2ccc(Cl)cc2)cc1,42.3 µM,2.72 µM
CC1(C)c2ccccc2C(=O)C12CCC(=O)CC2,> 100 µM,–
O=C(c1ccccc1)c1c(-c2ccccc2)[nH]n(-c2ccc([N+](=O)[O-])cc2)c(=O)c1=O,> 100 µM,–
